Laboratory results: PubChem BioAssay AID360 (National Center for Advancing Translational Sciences (NCATS), 2006)
The campaign covered roughly 48,000 compounds. About 550 (1.1%) were called active. Another 4% or so got no clear call; they are omitted. Rule as the data show it: active = potency below about 15 µM; inconclusive = mostly about 16 µM to 33 µM; inactive = weaker than that. The list shows a part of the results.

Target: Lysosomal acid glucosylceramidase (Homo sapiens) (UniProt P04062)
Assay: Glucocerebrosidase;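 also: the screen sought inhibitors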
Conditions: purified enzyme, resorufin glucoside fluorescence (screen aimed at inhibitors), 20 min; series mostly up to 77 µM
Summary of the method: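 Normal human glucocerebrosidase (0.2 nM final) was assayed with resorufin β-D-glucopyranoside (30 uM final) in 50mM citric acid/KH2PO4, 10mM sodium taurocholate, 0.01% tween-20, pH 5.9. Compounds were titrated; fluorescence (Ex 548, Em 600) read after 20 min at RT.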
Potency is read from the fitted curve at half-maximal effect.

UniProt P04062, sequence (P04062 whole entry, looked up): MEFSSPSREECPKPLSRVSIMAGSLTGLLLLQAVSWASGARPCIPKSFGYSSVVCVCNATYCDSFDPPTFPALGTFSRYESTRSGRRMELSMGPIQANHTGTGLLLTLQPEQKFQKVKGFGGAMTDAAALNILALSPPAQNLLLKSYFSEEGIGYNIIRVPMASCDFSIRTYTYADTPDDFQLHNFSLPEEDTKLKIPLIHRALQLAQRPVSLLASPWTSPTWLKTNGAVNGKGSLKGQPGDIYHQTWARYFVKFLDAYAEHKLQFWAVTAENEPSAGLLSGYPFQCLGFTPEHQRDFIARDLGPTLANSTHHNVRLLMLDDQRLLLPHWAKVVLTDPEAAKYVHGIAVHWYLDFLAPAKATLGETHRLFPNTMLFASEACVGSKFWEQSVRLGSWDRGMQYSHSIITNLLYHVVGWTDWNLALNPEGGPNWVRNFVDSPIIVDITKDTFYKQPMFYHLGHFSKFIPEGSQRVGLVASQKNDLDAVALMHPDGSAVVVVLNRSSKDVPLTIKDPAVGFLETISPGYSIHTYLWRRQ

Potency, inactive:
CCOc1ccccc1CN1CCN(S(C)(=O)=O)CC1 > 76.9 µM, CCCN(CCC)C(=O)Cn1c(=O)n(CCCCC(=O)NCc2ccco2)c(=O)c2ccccc21 > 76.9 µM, Cc1ccc(-n2nc3c(c2NC(=O)c2ccc4c(c2)OCO4)CSC3)cc1 > 76.9 µM, Cc1noc(C)c1COC(=O)c1cccnc1SCC(=O)Nc1ccc2c(c1)OCO2 > 76.9 µM, CC(=O)N(c1ccccc1)c1c(F)c(F)c(F)c(F)c1F > 76.9 µM, NC(=O)CSc1nnc(CNc2cccc(Cl)c2)n1CCc1ccccc1 > 76.9 µM, Cc1cc(C(=O)CSc2nc3ccccc3c(=O)n2C)c(C)n1Cc1ccc2c(c1)OCO2 > 76.9 µM, Cc1ccc2c(c1)nnn2C1CCN(CC(=O)NCCc2ccccc2)CC1 > 76.9 µM, COC(=O)c1ccc(NC(=O)CN2C(=O)CCC2=O)cc1 > 76.9 µM, Cc1ccc(S(=O)(=O)NCc2cn3ccsc3n2)c(C)c1 > 76.9 µM, Cc1ccsc1C(=O)N1CC(=O)Nc2ccccc21 > 76.9 µM, Cc1cc(C)n(-c2nc(NCC3CCCO3)c3c4c(sc3n2)COC(C)(C)C4)n1 (centres undefined) > 76.9 µM, O=C(NCc1ccc2c(c1)OCO2)c1ccc(CS(=O)(=O)c2cccc(C(F)(F)F)c2)o1 > 76.9 µM, CCOC(=O)C(NC(C)=O)(Nc1ccc(S(=O)(=O)Nc2nccs2)cc1)C(F)(F)F (centres undefined) > 76.9 µM, CCN(CC)CCCNC(=O)c1nn(-c2ccc(OC)cc2OC)c(=O)c2ccccc12 > 76.9 µM, CC(=O)Nc1cccc(C(=O)Oc2cccc(C)c2)c1O > 76.9 µM, Cc1ccc(CN2C(=O)CCC2C(=O)NCCCN2CCOCC2)cc1 (centres undefined) > 76.9 µM, O=C(O)CCCC(=O)Nc1nc2n(n1)C(c1ccc(F)cc1)CC(c1ccc(Cl)cc1)N2 (centres undefined) > 76.9 µM, Cc1cc(C)c(NC(=O)Cn2c(=O)n(Cc3ccco3)c(=O)c3ccccc32)c(C)c1 > 76.9 µM, O=C(CN1C(=O)c2ccccc2C1=O)Nc1ccc(S(=O)(=O)NCC2CCCO2)cc1 (centres undefined) > 76.9 µM, CCn1c(SCC(=O)N2CCCC2)nc2ccccc2c1=O > 76.9 µM, Nc1ncn(C(=O)c2ccco2)n1 > 76.9 µM, CCOC(=O)c1c(NC(=O)C2CCN(S(=O)(=O)c3cccs3)CC2)sc(C)c1C > 76.9 µM, O=C(NCCc1ccc(Cl)cc1)C1CCN(S(=O)(=O)c2ccc(-n3cnnn3)cc2)CC1 > 76.9 µM, CC(=O)Nc1cc(C(=O)N2CCCC2)ccc1S(=O)(=O)c1ccc(C)cc1 > 76.9 µM, COc1ccccc1NC(=O)CSc1nnc(-c2ccc(C)cc2)o1 > 76.9 µM, Cc1nc2cc(NC(=O)Nc3ccc(N4CCOCC4)cc3)ccc2n1C > 76.9 µM, CCCCn1nc(C(=O)NC2=NCCS2)c2ccccc2c1=O > 76.9 µM, O=C(NCc1ccccn1)C(C(=O)c1ccc(F)cc1)n1ccccc1=O (centres undefined) > 76.9 µM, O=C(c1ccccn1)N1CCN(c2ccc(C(F)(F)F)cn2)CC1 > 76.9 µM, COc1cc(C)nc(N(Cc2ccccc2)S(=O)(=O)c2ccccc2)n1 > 76.9 µM, O=C(CN1C(=O)C2(OCCO2)c2ccccc21)c1ccc(Br)cc1 > 76.9 µM, CCOC(=O)C1CCN(C(=O)Cc2cccs2)CC1 > 76.9 µM, Cc1nc(N2CCN(c3ccccc3)CC2)nc2c1C(=O)CC(c1ccccc1)C2 (centres undefined) > 76.9 µM, CCOc1cc(/C=C(/C#N)c2ccc(F)cc2)ccc1OCc1ccc(C(=O)O)o1 > 76.9 µM, CCC1CCCCN1C(=O)Nc1cccc(NC(=O)N2CCCCC2CC)c1 (centres undefined) > 76.9 µM, Cc1nc(N2CCC(C(N)=O)CC2)c2nnn(Cc3ccccc3)c2n1 > 76.9 µM, CCOC(=O)C1=C(C)NC(SCC(N)=O)=C(C#N)C1c1ccncc1 (centres undefined) > 76.9 µM, O=C(CC1C(=O)OCN1C(=O)OCc1ccccc1)OCC(=O)c1ccccc1 (centres undefined) > 76.9 µM, O=C(Oc1cccnc1)c1cc2ccccc2oc1=O > 76.9 µM, COC(=O)C(Cc1ccc(O)cc1)NC(=O)CCC(=O)Nc1ccc(S(N)(=O)=O)cc1 (centres undefined) > 76.9 µM, COc1ccc(S(=O)(=O)N2CCC(C(=O)Nc3ccccc3C)CC2)c2cccnc12 > 76.9 µM, Cc1oc2c(CN3CCCC3)c(O)ccc2c(=O)c1-c1ccc(Br)cc1, CCN(c1ccccc1)S(=O)(=O)c1ccc2[nH]cc(C(=O)NCCOC)c(=O)c2c1 > 76.9 µM, Cc1ccsc1C(C(=O)NC1CCCCC1)N(C(=O)c1csnn1)C1CC1 (centres undefined) > 76.9 µM, Cc1nccn1CC(O)COC1CCCCC1 (centres undefined) > 76.9 µM, Cc1ccc(CC(=O)Nc2cccc(C)n2)cc1 > 76.9 µM, O=c1c(C/C=C/c2ccccc2)c(O)nc2n1CCCS2 > 76.9 µM, CCOC(=O)C1=C(N)Oc2c(oc(CO)cc2=O)C1c1c(F)cccc1Cl (centres undefined) > 76.9 µM, O=C(CCCNS(=O)(=O)c1ccc(Br)cc1)N1CC[C@@]2(O)CCCC[C@H]2C1 > 76.9 µM, CCOC(=O)c1[nH]c2ccccc2c1NC(=O)c1ccco1 > 76.9 µM, CC(=O)N1CCc2cc(S(=O)(=O)NCCC(=O)N3CCc4ccccc4C3)ccc21 > 76.9 µM, CCOC(=O)CNC(=O)Cn1c(C)cc2ccccc2c1=O > 76.9 µM, O=C1NCC(COCc2ccco2)O1 (centres undefined) > 76.9 µM, CCCS(=O)(=O)N1CCC(C(=O)NCc2ccccc2Cl)CC1 > 76.9 µM, Clc1ccccc1-c1nnc2sc(-c3ccc4c(c3)OCO4)nn12 > 76.9 µM, O=C(NCc1ccco1)C1CCCN(S(=O)(=O)c2cccc3nsnc23)C1 (centres undefined) > 76.9 µM, CCc1nc(NCCCn2ccnc2)c2oc3ccccc3c2n1 > 76.9 µM, Cc1ccc(C(C(=O)NCc2ccco2)N(CC2CCCO2)C(=O)Cn2nnc3ccccc32)cc1 (centres undefined) > 76.9 µM, O=C(CSc1nnc(-c2cccnc2)n1Cc1ccco1)N1CCc2ccccc21 > 76.9 µM, O=C1c2ccccc2CCC1C(O)c1ccccn1 (centres undefined) > 76.9 µM, Cc1c(NC(=O)CSc2nnnn2Cc2ccccc2)c(=O)n(-c2ccccc2)n1C > 76.9 µM, O=C(CN(Cc1ccco1)C(=O)CNS(=O)(=O)c1ccc(Cl)cc1)NC1CCCCC1 > 76.9 µM, Cn1c(Sc2nc3ccccc3n2C)nc2ccccc21 > 76.9 µM, COc1cccc(C2CC(C(F)(F)F)n3ncc(C(=O)NCc4ccco4)c3N2)c1 (centres undefined) > 76.9 µM, COc1cccc(C2=NOC(C(=O)NCc3ccccn3)C2)c1 (centres undefined) > 76.9 µM, O=c1nc2n(c3cc(Cl)c(S(=O)(=O)N4CCOCC4)cc13)CCCCC2 > 76.9 µM, CCN(CC)CCNC(=O)CCc1nn(C)c(=O)c2ccccc12 > 76.9 µM, Cc1cccc(NC(=O)Cn2c(=O)n(C)c3ccccc32)c1 > 76.9 µM, O=C(NCc1cccnc1)c1cc(-c2ccco2)on1 > 76.9 µM, O=C(CSc1nnnn1-c1ccccc1)N1CCc2ccccc2C1 > 76.9 µM, CCN(C1CCCCC1)S(=O)(=O)c1cc(C)ccc1OC > 76.9 µM, COc1cccc(-n2c(Cc3cc(=O)[nH]c(=O)[nH]3)nnc2SCC(=O)N2CCC(C)CC2)c1 > 76.9 µM, O=C1C2CCCN2C(c2ccccc2F)N1c1ccc(F)cc1 (centres undefined) > 76.9 µM, Cc1cc(NC(=O)C2(c3ccccc3)CCCC2)no1 > 76.9 µM, O=C(CSc1nnc(CCCO)n1-c1ccccc1)NCCc1ccccc1 > 76.9 µM, O=C(Nc1ccccc1)NC1CS(=O)(=O)CC1O (centres undefined) > 76.9 µM, CC(=O)Nc1ccc(S(=O)(=O)N2CCC(N(C)CCC(C)C)CC2)cc1 > 76.9 µM, CC12CCC(C(=O)NCc3ccccc3)(OC1=O)C2(C)C (centres undefined) > 76.9 µM, CSCC[C@@H](Nc1nc(-c2ccccc2)nc2c1oc1ccccc12)C(=O)O > 76.9 µM, Cc1cc(NC(=O)CSc2nc3ccccc3[nH]2)no1 > 76.9 µM, Cc1c(C(=O)NCc2cccnc2)oc2ccc(S(=O)(=O)N3CCCCC3)cc12 > 76.9 µM, CCCCOC(=O)c1cc(=O)[nH]c2ccccc12 > 76.9 µM, COc1ccc2c(c1)c(=O)oc1cc(OCC(=O)N3CCCC(C)C3)ccc12 (centres undefined) > 76.9 µM, NC(=O)C1CCN(Cc2nc(-c3ccccc3)no2)CC1 > 76.9 µM, Fc1ccc(CSc2nnc(-c3cccs3)o2)cc1 > 76.9 µM, COc1cc(C2CC(=O)Nc3ccccc3S2)cc(OC)c1OC (centres undefined) > 76.9 µM, COCCN1Cc2cccc(C(=O)Nc3ccccc3OC)c2C1=O > 76.9 µM, Cc1ccc(-c2nc(S(=O)(=O)c3ccc(F)cc3)c(SCC(=O)NCC3CCCO3)o2)cc1 (centres undefined) > 76.9 µM
